Results from PubChem BioAssay AID686978 (National Center for Advancing Translational Sciences (NCATS), 2013).
In all, about 420,000 compounds went through this assay and about 64,000 (15%) were called active. This list was built around the results that the source calls inconclusive (neither active nor inactive); the mix of calls is not that of the screen. Calls follow the shape of the dose curve; as a rule, active = well fitted inhibition curve with a large enough effect; inconclusive = small, poorly fitted or top-dose-only effect; inactive = flat fitted curve, though single readings scatter. Potencies of inconclusive entries are left out as doubtful fits.

experiment: qHTS for Inhibitors of human tyrosyl-DNA phosphodiesterase 1 (TDP1): qHTS in cells in absence of CPT; conditions: DT40 Tdp1-/- hTDP1 cells, no CPT, ATP luminescence, 48 h; activity change, negative = growth inhibition: at 46.2 µM (top of the series) unless noted; also: nearly all actives have a fitted effect of over 55% in size
Method in brief: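 Compound effects on proliferation are scored in DT40 Tdp1-/-;hTDP1 cells in the absence of CPT. ATP levels (CellTiter-Glo luminescence) are recorded after a ≥48 hr, 37 °C incubation.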
% is scaled to controls: 0 for no effect and ±100 for the full control effect; potency is read from the fitted curve at half-maximal effect; tags tell the direction and shape of the fitted curve.

| Compound | Potency | activity change, negative = growth inhibition |
| --- | --- | --- |
| Cc1nn(CCC(=O)NNC(=S)Nc2ccc(F)cc2)c(C)c1Br | inconclusive [inhibitor, single point] | – |
| COc1ccc(C)cc1NC(=O)c1ccc(CN2CCN(c3ccccc3)CC2)cc1 | inconclusive [inhibitor, single point] | – |
| O=C(O)c1ccccc1Sc1c([N+](=O)[O-])cc(C(F)(F)F)cc1[N+](=O)[O-] | inconclusive [inhibitor, single point] | – |
| Cc1ccc(OCc2nc3c4c(ncn3n2)-c2ccccc2CC42CCCC2)cc1 | inconclusive [inhibitor, partial curve] | – |
| CN1CCN(CCOc2cccc(Cl)c2)CC1 | – | inactive: -3.48% |
| CCc1nnc(NS(=O)(=O)c2ccc(N=Cc3c(C)[nH]n(-c4ccc(Cl)cc4)c3=O)cc2)s1 | inconclusive [inhibitor, partial curve] | – |
| CC1=C(C(=O)OCc2cc(C)on2)N2C(=O)[C@@H](NC(=O)OCc3cc(C)on3)[C@H]2SC1 | inactive | – |
| COc1cccc(CNC(=O)Cn2ncn3nc(-c4cccs4)cc3c2=O)c1 | inconclusive [inhibitor, single point] | – |
| COc1ccc(Cn2ccc3nc(C)c(C(=O)Nc4cccc(SC)c4)cc3c2=O)cc1 | inconclusive [inhibitor, single point] | – |
| Oc1c(C(Nc2ccccn2)c2ccccc2F)ccc2cccnc12 (configuration not stated) | active: 16.4 µM | – |
| O=C(CCNS(=O)(=O)c1ccccc1)OCC(=O)c1ccc(Cl)cc1 | – | inactive: 3.33% |
| CN(C)S(=O)(=O)c1ccc(C(=O)Nc2ccn(C)n2)cc1 | – | inactive: 2.87% |
| Cn1c(=O)c2c(nc(N3CCC(C(N)=O)CC3)n2CCSc2nc3ccccc3s2)n(C)c1=O | inconclusive [inhibitor, single point] | – |
| CC1=CC(C)(C)NC(=S)N1c1ccc(Cl)cc1 | inconclusive [inhibitor, partial curve] | – |
| O=C(Nc1cccc(-c2nc3cc(Cl)ccc3o2)c1)C1CCCO1 (configuration not stated) | inconclusive [inhibitor, partial curve] | – |
| Cc1ccc(NC(=O)C2CCN(S(=O)(=O)c3cccc4nsnc34)CC2)cc1F | – | inactive: -26.4% |
| COCCn1c(=NC(=O)c2cc(Cl)sc2Cl)sc2cc(S(N)(=O)=O)ccc21 | inconclusive [inhibitor, partial curve] | – |
| Cc1ccc(C)c(S(=O)(=O)NCC(=O)NCc2ccco2)c1 | – | inactive: -0.81% |
| CC(C)C[C@H]1COCCS(=O)(=O)N1Cc1cccc(F)c1 | inconclusive [inhibitor, single point] | – |
| CCOC(=O)N1CCC(NC(=O)c2cc(C(=O)NCc3ccc(F)cc3)ccc2CO)CC1 | active: 11.6 µM | – |
| COc1ccc(N2CCN(C(=O)CSc3nnc(-c4ccc5[nH]c(C)c(C)c5c4)o3)CC2)cc1 | – | inactive: -28.7% |
| Cc1cccc(N(C(=O)c2nsc(Cl)c2Cl)C(C(=O)NC2CCCC2)c2ccc(O)cc2)c1C (configuration not stated) | inconclusive [inhibitor, single point] | – |
| O=C(O)CN1CCN(Cc2ccc(F)cc2)C1=O | – | inactive: 11.3% |

| Compound | Potency | activity change, negative = growth inhibition |
| --- | --- | --- |
| COc1ccc(NC(=O)C(=O)NCCc2csc3nc(-c4ccccc4F)nn23)cc1OC | – | inactive: 2.9% |
| CCCOc1ccc(-c2csc(N)n2)cc1[N+](=O)[O-] | active: 10.3 µM | – |
| CC1CN(C(=O)N(C)C)CCN1C(=O)N(C)C (configuration not stated) | – | inactive: -9.45% |
| CCOC(=O)Cn1nc(C)c(NC(=O)c2ccc(Cl)c([N+](=O)[O-])c2)c1C | inconclusive [inhibitor, single point] | – |
| Fc1ccccc1C(c1nnnn1Cc1ccc2c(c1)OCO2)N1CCN(Cc2ccco2)CC1 (configuration not stated) | inconclusive [inhibitor, partial curve, poor fit] | – |
| Cc1ccc(CNC(=O)C2CC=CCC2C(=O)O)cc1 (configuration not stated) | inconclusive [inhibitor, single point] | – |
| Nc1cnn(Cc2ccc(F)cc2)c1 | – | inactive: 14.4% |
| COC(=O)C(C(=O)OC)c1ccccc1NC(=O)OCc1ccccc1 | inconclusive [inhibitor, single point] | – |
| O=C(Nc1ccc2c(c1)CCCN2C(=O)c1ccco1)c1cc([N+](=O)[O-])ccc1Cl | inconclusive [inhibitor, single point] | – |
| O=C(Nc1ccccc1)Nc1cccc(C(F)(F)F)c1 | inconclusive [inhibitor, single point] | – |
| CCS(=O)(=O)c1ccc2oc(SCC(=O)NC3CCCC(C)C3C)nc2c1 (configuration not stated) | inconclusive [inhibitor, single point] | – |
| CC(=O)OC[C@H]1O[C@@H](O[C@H]2C[C@]3(C)C(C[C@@H](O)C4C([C@]5(C)CC[C@@H](C(C)(C)O)O5)CC[C@]43C)[C@@]3(C)CC[C@H](O)C(C)(C)C23)[C@H](O[C@@H]2O[C@@H](C)[C@H](O)[C@@H](O)[C@H]2O)[C@@H](O)[C@@H]1O (some centres not stated) | – | inactive: 1.11% |
| C=CCN([C@H](C(=O)OC)C(C)C)S(=O)(=O)CCNCc1ccccc1 | inconclusive [inhibitor, single point] | – |
| COC(=O)c1ccc(N2CCN(c3ccccc3)CC2)c(N)c1 | inconclusive [inhibitor, partial curve, poor fit] | – |
| CC1CCN(CC(=O)Nc2ccccc2Sc2ccccc2)CC1 | inconclusive [inhibitor, single point] | – |
| COc1cccc(NC(=O)NCc2c(-c3ccccc3)noc2C)c1 | inconclusive [inhibitor, partial curve, poor fit] | – |
| CSc1ccc(S(=O)(=O)NCC(=O)OC(C)C(=O)NCc2ccccc2)cc1[N+](=O)[O-] (configuration not stated) | – | inactive: -12.8% |
| COc1cccc(CNC(=O)c2ccc(-c3nc(CSc4ccccc4)c(C)o3)cc2)c1 | inconclusive [inhibitor, full curve, poor fit] | – |
| CCn1cc2nc(SCc3ccccc3Cl)n(Cc3ccc(OC)cc3)c(=O)c2n1 | active: 14.6 µM | – |
| O=[N+]([O-])c1ccc(O)c(/C=N/n2cnc3ccccc32)c1 | inconclusive [inhibitor, single point] | – |
| O=C(NCc1ccccc1)OCCN1CCN(Cc2ccccc2)CCC1=O | inconclusive [inhibitor, single point] | – |
| Cn1c(NCc2ccccc2)nc2c1c(=O)n(Cc1ccccc1)c(=O)n2C | inconclusive [inhibitor, single point] | – |
| COc1ccc(OCC(=O)NCCC2=CCCCC2)c([N+](=O)[O-])c1 | inconclusive [inhibitor, single point] | – |

| Compound | Potency | activity change, negative = growth inhibition |
| --- | --- | --- |
| CN(C(=O)COc1ccc(Cl)cc1Cl)C1(C)CCS(=O)(=O)C1 (configuration not stated) | – | inactive: -21.6% |
| O=C(NCc1ccco1)C1CCN(C(=O)c2cc3sccc3n2Cc2ccc(Cl)cc2)CC1 | inconclusive [inhibitor, single point] | – |
| COc1ccc(C(Nc2ccccn2)c2ccc3ccc(C)nc3c2O)cc1C (configuration not stated) | inconclusive [inhibitor, single point] | – |
| COc1ccc(S(=O)(=O)Nc2ccc3oc4ncccc4c(=O)c3c2)cc1OC | inconclusive [inhibitor, partial curve] | – |
| Cc1ccc2nc(-c3ccc(NC(=S)NCCC(C)C)cc3)sc2c1 | inconclusive [inhibitor, single point] | – |
| O=C(Cn1c2ccc(F)cc2c2nc3n(c(=O)c21)CCS3)Nc1ccc(Cl)cc1F | inconclusive [inhibitor, single point] | – |
| COc1ccccc1CNS(=O)(=O)c1ccc(N2CCCC2)cc1Br | inconclusive [inhibitor, single point] | – |
| CCc1cccc(NC(=O)COC(=O)c2cc([N+](=O)[O-])ccc2N2CCOCC2)c1 | inconclusive [inhibitor, single point] | – |
| COc1ccc(-n2cc(CNCC3CC(=O)N(C4CC4)C3)c(-c3ccccc3Cl)n2)cc1 (configuration not stated) | active: 23.1 µM | – |
| CC(=O)Nc1ccccc1-c1nc2ccccc2n(C(C)C(=O)Nc2ccccc2C(F)(F)F)c1=O (configuration not stated) | inconclusive [inhibitor, single point] | – |
| COc1ccc(OC)c(-n2c(-c3cccc(O)c3)n[nH]c2=S)c1 | – | inactive: -0.6% |
| CC(=O)Nc1ccc(S(=O)(=O)n2cnc3cc(C)c(C)cc32)cc1 | active: 18.4 µM | – |
| Cc1ccc2c(n1)CC(C)(C)CC2=O | – | inactive: 0.0529% |
| COc1cc(OC)c(OC)cc1/C=C/c1nc2cc3ccccc3cc2c(=O)n1-c1ccccc1Br | inconclusive [inhibitor, single point] | – |
| Cc1cccc(N2CCN(C3=C(c4ccccc4)C(=O)c4ccccc43)CC2)c1C | active: 11.6 µM | – |
| COc1ccc(CCNC(=O)N[C@@H](Cc2ccccc2)C(=O)O)cc1 | – | inactive: 0.0146% |
| NNC(=O)c1ccc(OCC2CC(c3ccc(Cl)cc3)=NO2)cc1 (configuration not stated) | inconclusive [inhibitor, partial curve] | – |
| O=C(N/N=C/c1cc(Br)c(Br)o1)c1ccc2c(c1)OCCO2 | inconclusive [inhibitor, single point] | – |
| O=[N+]([O-])c1cc(-c2nnc(C34CC5CC(CC(C5)C3)C4)o2)cc([N+](=O)[O-])c1 | – | inactive: -24.3% |
| COCCn1nnnc1C(c1ccc(OC)cc1)N1CCC(C)CC1 (configuration not stated) | – | inactive: -25% |
| CCC(=O)c1ccc(OCC(=O)N(Cc2nnc(-c3ccccc3Cl)o2)C2CC2)cc1 | inconclusive [inhibitor, single point] | – |
